{"source": "PubChem BioAssay AID485294", "about": "(National Center for Advancing Translational Sciences (NCATS), 2010)", "note": "The whole screen tested about 370,000 compounds, of which about 150 (0.041%) were called active. Inconclusive results, whose numbers are uncertain, are shown with a selection of clear calls. Calls come from the whole dose curve; as a rule, active = well fitted inhibition curve with a large enough effect; inconclusive = small, poorly fitted or top-dose-only effect; inactive = flat fitted curve, though single readings scatter. No potency is given beside an inconclusive call; the fits are too rough. Potency is the fitted concentration of half-maximal effect; tags give direction and shape of the fitted curve.", "data": [{"target": "Beta-lactamase (Escherichia coli (strain K12)) (UniProt P00811)", "sequence (P00811 whole entry, looked up)": "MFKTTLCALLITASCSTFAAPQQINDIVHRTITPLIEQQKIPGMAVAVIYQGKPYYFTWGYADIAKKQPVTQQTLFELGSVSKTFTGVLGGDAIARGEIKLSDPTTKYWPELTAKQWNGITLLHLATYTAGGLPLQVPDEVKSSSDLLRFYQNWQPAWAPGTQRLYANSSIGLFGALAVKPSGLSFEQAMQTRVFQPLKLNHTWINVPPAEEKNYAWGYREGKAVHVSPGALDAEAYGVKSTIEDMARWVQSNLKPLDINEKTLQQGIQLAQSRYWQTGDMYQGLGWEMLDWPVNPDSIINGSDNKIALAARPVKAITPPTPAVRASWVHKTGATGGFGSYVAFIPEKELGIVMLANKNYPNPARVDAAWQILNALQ", "assay": "qHTS Inhibitors of AmpC Beta-Lactamase (assay with detergent); note: nearly all actives have a fitted effect of over 25% in size", "settings": "AmpC hydrolysis of nitrocefin, absorbance 480 nm, 0.01% Triton; series mostly up to 114 µM", "how_it_was_run": "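AmpC (5.3 nM in the dispensed reagent) in 20 mM phosphate pH 7.0 with 0.01% (detergent screen) or 0.0001% Triton X-100 was preincubated with compounds for 15 min at room temperature. Nitrocefin was then added from an 800 uM solution, and hydrolysis was followed at 480 nm.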", "values": [{"smiles": "N#Cc1nc(-c2cccs2)oc1NCCc1ccccc1", "Potency": "inactive"}, {"smiles": "Oc1ccc(CNc2ccc(F)cc2)c2cccnc12", "Potency": "inconclusive [inhibitor, full curve, poor fit]"}, {"smiles": "CCC(c1nnnn1CC1CCCO1)N(CCN1CCOCC1)Cc1cc2cc(C)ccc2[nH]c1=O", "note": "(configuration not stated)", "Potency": "inactive"}, {"smiles": "Cc1ccccc1N1CC(C(=O)Nc2nnc(SCC(=O)Nc3nccs3)s2)CC1=O", "note": "(configuration not stated)", "Potency": "inactive"}, {"smiles": "CCN1C(=O)/C(=C\\c2ccc(F)cc2)N=C1SCC(=O)NCc1ccco1", "Potency": "inconclusive [inhibitor, partial curve]"}, {"smiles": "CN(C(=O)c1ccno1)c1nnc(-c2ccccn2)s1", "Potency": "inconclusive [inhibitor, full curve, poor fit]"}, {"smiles": "COc1ccc(S(=O)(=O)Nc2ccc(Oc3ccsc3C(=O)O)cc2)cc1", "Potency": "inconclusive [inhibitor, partial curve, poor fit]"}, {"smiles": "N=C1N(/N=C/c2ccccc2)C(=Nc2ccccc2)C(=S)N1c1ccccc1", "Potency": "inconclusive [inhibitor, single point]"}, {"smiles": "CCN(CC)CCOC(=O)c1ccc(NC(=O)C2(c3ccccc3)CCCC2)cc1", "Potency": "inconclusive [inhibitor, full curve, poor fit]"}, {"smiles": "CN(C)C(=O)COc1ccc2cc(-c3ccccc3)c(=O)oc2c1", "Potency": "inactive"}, {"smiles": "O=C(CSc1ccc(C(F)(F)F)cc1[N+](=O)[O-])N1CCOCC1", "Potency": "inconclusive [inhibitor, partial curve, poor fit]"}, {"smiles": "C/C(=N/NC(=O)CNC(=O)c1ccc2c(c1)OCO2)c1ccc2c(c1)CCCC2", "Potency": "inactive"}, {"smiles": "CCc1cc2c(=O)c(-c3nc4ccccc4n3C)c(COCC(=O)O)oc2cc1OC(=O)C(C)(C)C", "Potency": "inconclusive [inhibitor, full curve, poor fit]"}, {"smiles": "O=C(CCc1cn(Cc2ccc(F)cc2)c2ccccc12)NCCc1ccc(Cl)cc1", "Potency": "inactive"}, {"smiles": "CCN(CC)C(=O)c1cccc(NC(=O)CCc2nc3sc4c(c3c(=O)[nH]2)CCCC4)c1", "Potency": "inconclusive [inhibitor, partial curve]"}, {"smiles": "N/C(CN1CCCC1=O)=N\\OC(=O)c1ccc(Cl)c(Cl)c1", "Potency": "inactive"}, {"smiles": "CSc1nnc(NC(=O)c2ccc(S(=O)(=O)N(C)C)cc2)s1", "Potency": "inactive"}, {"smiles": "O=C(c1cccs1)N1CCCc2ccccc21", "Potency": "inconclusive [inhibitor, full curve, poor fit]"}, {"smiles": "Cc1ccc2c(c1)N(C(=O)CCC(=O)NCCCN(C)Cc1ccccc1)CCO2", "Potency": "inconclusive [inhibitor, full curve, poor fit]"}, {"smiles": "Cc1cc(C(=O)OCn2nnc3ccccc3c2=O)c(C)n1-c1ccccc1", "Potency": "inactive"}, {"smiles": "CC(C)C(c1nnnn1Cc1ccccc1)N1CCN(Cc2ccco2)CC1", "note": "(configuration not stated)", "Potency": "inconclusive [inhibitor, full curve, poor fit]"}, {"smiles": "CC(Sc1nc(=O)cc(N)n1CCc1ccccc1)C(=O)Nc1ccc(Cl)cc1", "note": "(configuration not stated)", "Potency": "inactive"}, {"smiles": "O=c1[nH]c(C2CCN(S(=O)(=O)c3cccc(Cl)c3)CC2)nc2c1nnn2Cc1ccccc1", "Potency": "inconclusive [inhibitor, full curve, poor fit]"}, {"smiles": "CCN1CCN(Cc2cc(OC)c3c(c2)OCO3)CC1", "Potency": "inconclusive [inhibitor, full curve, poor fit]"}, {"smiles": "Cc1cccc(CN2CCC(CNC(=O)c3c(C)oc4ncnc(N5CCCCC5)c34)CC2)c1", "Potency": "inactive"}, {"smiles": "CCC(NC(=O)c1cc(COc2cncc(Cl)c2)on1)c1ccncc1", "note": "(configuration not stated)", "Potency": "inconclusive [inhibitor, partial curve, poor fit]"}, {"smiles": "COc1cccc(NC(=S)NC(C)c2ccc(OC)c(OC)c2)c1", "note": "(configuration not stated)", "Potency": "inconclusive [inhibitor, full curve, poor fit]"}, {"smiles": "COc1ccc(NC(=O)c2cc3c(=O)n4ccccc4nc3n2C)c(OC)c1", "Potency": "inconclusive [inhibitor, single point]"}, {"smiles": "O=C(COC(=O)/C=C/c1ccccc1Cl)NC1CCCCCC1", "Potency": "inconclusive [inhibitor, partial curve]"}, {"smiles": "O=C(Nc1ccncc1)Nc1cccc(C(F)(F)F)c1", "Potency": "inconclusive [inhibitor, full curve, poor fit]"}, {"smiles": "CCc1ccccc1N(CC)C(=O)c1c(C)oc2ncnc(N3CCOCC3)c12", "Potency": "inactive"}, {"smiles": "CC(C)OCCCNC(=O)C(C)Oc1ccccc1", "note": "(configuration not stated)", "Potency": "inconclusive [inhibitor, full curve, poor fit]"}, {"smiles": "O=C(NCCc1ccccc1)c1nc2nc(-c3cccs3)cc(C(F)(F)F)n2n1", "Potency": "inconclusive [inhibitor, single point]"}, {"smiles": "Cc1cc(/C=N/NC(=O)c2ccc(CN3CCOCC3)cc2)c(C)n1-c1ccccc1", "Potency": "inactive"}, {"smiles": "O=[N+]([O-])c1ccc2nc(C3CCCCC3)[nH]c2c1", "Potency": "inconclusive [inhibitor, full curve]"}, {"smiles": "COc1ccc(NC(=O)CSc2nccn2Cc2ccco2)cc1", "Potency": "inconclusive [inhibitor, single point]"}, {"smiles": "Cc1ccc2c(CC(=O)N(C)c3c(N)n(Cc4ccccc4)c(=O)[nH]c3=O)coc2c1", "Potency": "inconclusive [inhibitor, full curve, poor fit]"}, {"smiles": "CC(=O)c1ccccc1OC(=O)c1ccco1", "Potency": "inconclusive [inhibitor, full curve]"}, {"smiles": "COc1ccc(NC(=O)CSc2nc3ccccc3n2-c2ccccc2)c([N+](=O)[O-])c1", "Potency": "inconclusive [inhibitor, partial curve, poor fit]"}, {"smiles": "CNC(=O)CC1C(=O)N(C)C(=S)N1NC(=O)c1ccc(Cl)cc1", "note": "(configuration not stated)", "Potency": "inconclusive [inhibitor, single point]"}, {"smiles": "CC(=O)Nc1cc(OC(C)=O)c2nonc2c1OC(C)=O", "Potency": "inconclusive [inhibitor, single point]"}, {"smiles": "CC(CCc1ccccc1)NCc1cccc2ccccc12", "note": "(configuration not stated)", "Potency": "inconclusive [inhibitor, partial curve]"}, {"smiles": "c1ccc(-c2nnc3ccc(N4CCCC4)nn23)cc1", "Potency": "inconclusive [inhibitor, full curve, poor fit]"}, {"smiles": "CNC(=O)Cn1c(=O)n(C)c2ccccc21", "Potency": "inconclusive [inhibitor, full curve, poor fit]"}, {"smiles": "O=C1NC(=O)N(CCc2ccc(F)cc2)C(=O)/C1=C/c1ccco1", "Potency": "inconclusive [inhibitor, partial curve]"}, {"smiles": "O=C1Nc2ccccc2C1=Nc1ccc(Br)cc1", "Potency": "inconclusive [inhibitor, partial curve]"}, {"smiles": "CCOc1nc(-c2ccccc2)ccc1-c1noc(-c2ccco2)n1", "Potency": "inconclusive [inhibitor, partial curve, poor fit]"}, {"smiles": "COc1ccc(/C=N/NC(=O)C(=O)N2CCCCCC2)cc1", "Potency": "inconclusive [inhibitor, full curve, poor fit]"}, {"smiles": "CC(=O)c1cnc2nc(SCc3ccccc3)nn2c1C", "Potency": "inactive"}, {"smiles": "COc1cccc(C(=O)N=c2sc3c(C)ccc(OC)c3n2C)c1", "Potency": "inconclusive [inhibitor, single point]"}, {"smiles": "CCOc1cccc(CN2CCC(Oc3ccc(C(=O)NCc4ccccn4)cc3)CC2)c1", "Potency": "inconclusive [inhibitor, full curve, poor fit]"}, {"smiles": "CCCCOc1ccc(C(=O)NCC(=O)NCc2ccccn2)cc1", "Potency": "inactive"}, {"smiles": "O=C(c1cc(COc2ccccc2)on1)N1CCCC(OCc2cccnc2)C1", "note": "(configuration not stated)", "Potency": "inconclusive [inhibitor, full curve, poor fit]"}, {"smiles": "Cc1noc(C)c1-c1csc(N2CCC(C(N)=O)CC2)n1", "Potency": "inconclusive [inhibitor, full curve, poor fit]"}, {"smiles": "NS(=O)(=O)c1ccc(N/N=C/c2cn(-c3ccccc3)nc2-c2cccs2)c([N+](=O)[O-])c1", "Potency": "inconclusive [inhibitor, full curve, poor fit]"}, {"smiles": "COc1cc(NC(=O)C2CSC3(C)CCC(=O)N23)c(OC)cc1Cl", "note": "(configuration not stated)", "Potency": "inconclusive [inhibitor, partial curve, poor fit]"}, {"smiles": "Cc1nc2cc(NC(=O)CCS(=O)(=O)c3ccccc3)ccc2s1", "Potency": "inconclusive [inhibitor, full curve, poor fit]"}, {"smiles": "CC1(OC(=O)c2ccc(Cl)nc2)C(=O)C=C2C=C3CCCN3C=C2C1=O", "note": "(configuration not stated)", "Potency": "inactive"}, {"smiles": "CSc1nc(N(C)NC(=O)c2cccc(C)c2)c2ccccc2n1", "Potency": "inconclusive [inhibitor, single point]"}, {"smiles": "CCOc1ccc(-c2nnc3sc(COc4ccc(C)cc4)nn23)cc1", "Potency": "inconclusive [inhibitor, full curve]"}, {"smiles": "O=C(Nc1ccc(F)cc1)NC1(C(=O)NCc2ccco2)CCCCC1", "Potency": "inconclusive [inhibitor, full curve, poor fit]"}, {"smiles": "O=C(NCc1ccccc1)c1onc(CS(=O)(=O)c2ccccn2)c1C(=O)NCc1ccccc1", "Potency": "inconclusive [inhibitor, single point]"}, {"smiles": "O=C(COc1ccc(Cl)cc1)NNC(=O)c1ccccc1C(=O)O", "Potency": "inactive"}, {"smiles": "COc1ccc(CC(=O)NCCC2=CCCCC2)cc1", "Potency": "inconclusive [inhibitor, full curve]"}, {"smiles": "CCCCC(=O)N/N=C/c1c(O)n(C2CC2)c(=S)[nH]c1=O", "Potency": "inactive"}, {"smiles": "CCN(CC)c1ccc(S(=O)(=O)N2CCOCC2)cc1NC(=O)CN1C(=O)NC2(CCC(C)CC2)C1=O", "note": "(configuration not stated)", "Potency": "inactive"}, {"smiles": "CCc1ccc(CNC(=O)c2ccc(NC(=O)N3CC(C)Sc4ccccc43)cc2)cc1", "note": "(configuration not stated)", "Potency": "inactive"}]}]}
